The other results are listed elsewhere or left out.
These sequences were tested on PfAP2-HC AP2 domain (GST-tagged) (assay: gcPBM binding intensity (ln(normalized median fluorescence intensity)); higher = stronger DNA binding).
Summary of the method: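 The binding buffer was 1× PBS containing 1% milk, 0.2 mg/ml BSA, 0.5% salmon testes DNA and 0.03% Triton X-100. In it, GST-tagged P. falciparum DNA-binding domains expressed in E. coli were applied for 1 h to an Agilent 4 × 180k array of primer-extended double-stranded 36-bp intergenic genomic probes plus negative controls. Binding intensity, read with Alexa488 anti-GST antibody and a 488 nm scan, is the highest Masliner-normalised natural-log median intensity across replicate spots of either probe orientation.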

Going from “AATTTTTTTTTATTGTGTACTTATTTTTTTATATTT [XGTACX_site917]” to “AATATATTTCATTTTTGTACACACAACGTTGGAGGG [XGTACX_site6461]”, the “gcPBM binding intensity (ln)” value falls from 9.92 to 9.75.

Going from “CAACATATGCATATGTGTACATATTTTATTTTCAAC [XGTACX_site2237]” to “ACATACATATGTAAATGTACAAAATATCCATAGATT [XGTACX_site2782]”, the “gcPBM binding intensity (ln)” value rises from 9.69 to 9.89.

Compared with “ATATACTCATTAATAACACACAATATGATAACAAAT [CACACA_site5913]”, “TATATATTATCAAGTGGACACACGAAAAAAAGGAAA [CACACA_site3741]” is lower in “gcPBM binding intensity (ln)” value: 10.1 for the first, 9.85 for the second.

First: TTTTTCATATTATACTTTTATATACATATATAAAAA [XGTACX_negctrl_site281]
Second: TAAAGATTGTTCAGTGCATGTTGGCCTGTAAATGGA [TGCATGCA_site315]
The “gcPBM binding intensity (ln)” value of the first is lower: 9.47 for the first, 9.63 for the second.

Going from “ATAATGTAGAACTAGAGTACATAAAAAAATAAACAT [XGTACX_site5205]” to “TTTTTTTTTTTTTTTTTTTGTCTTATATATTACGGA [CACACA_negctrl_site322]”, the “gcPBM binding intensity (ln)” value falls from 10.1 to 8.7.

Compared with “GCTACACAATTTTTTAGTACACACATATAAATATAT [XGTACX_site3131]”, “TAAGATATATTTTTTTGTACACATAATAAAATAATA [XGTACX_site8938]” is lower in “gcPBM binding intensity (ln)” value: 9.95 for the first, 9.12 for the second.

First: AAAAGAAACTTATTTACGCACACTTTATTGCATGTT [CACACA_site3887]
Second: GATAAATCATATATAACACACATATGAATATTACAA [CACACA_site1321]
The “gcPBM binding intensity (ln)” value of the first is lower: 9.84 for the first, 9.86 for the second.

Going from “GTAATTTTGAGATGATGTACATATTTTTTCCTTGTC [XGTACX_site4103]” to “GGACAAGTTTTTTACATAAATAAAAAAAATAAAAAA [XGTACX_negctrl_site125]”, the “gcPBM binding intensity (ln)” value rises from 9.61 to 9.67.

“ATATATATATAATAAACACACAAATAGATATAACAT [CACACA_site3715]” and “TTAAAGCTGACATATACACACATACATAAATTCATA [CACACA_site5377]” are the same in “gcPBM binding intensity (ln)” value: 10.1 for the first, 10.1 for the second.

Going from “TATACATATATTATATGTACATATATATATAATATA [XGTACX_site2942]” to “ATACTTATGATAAATACACACTTGAAATTAAGGATT [CACACA_site4772]”, the “gcPBM binding intensity (ln)” value rises from 9.5 to 9.62.

First: CGAACAAACAAATAAACACACAAAAAAAAATATATA [CACACA_site1825]
Second: TTTTTTAAAAGATATATAATATGTATGAATATTCAA [XGTACX_negctrl_site380]
The “gcPBM binding intensity (ln)” value of the first is higher: 9.84 for the first, 9.4 for the second.

First: AATGTGAAAAAAAAAAGTACAGACCTAATCAAAAAA [XGTACX_site2486]
Second: AAAAAAAATACATACACACACACACCCACATATATA [CACACA_site3561]
The “gcPBM binding intensity (ln)” value of the first is lower: 9.68 for the first, 10.6 for the second.

First: ATAGAAGGCAACTTGGTGCACAAAAAAAAAAATAAT
Second: AATATAAAAAAAGAGGAGGGATGGTATACTTGTGGT [CACACA_negctrl_site986]
The “gcPBM binding intensity (ln)” value of the first is higher: 10 for the first, 9.89 for the second.

First: ATATAATAATATTAAAGTACATGCATATATATTTAT [XGTACX_site7422]
Second: ACTATTTAAATGCAAAGTACTTTGATAATAAACAAT [XGTACX_site2608]
The “gcPBM binding intensity (ln)” value of the first is lower: 9.66 for the first, 9.86 for the second.

Compared with “TAATATAACAAAAAAATAAAATAAAATAAAAAATAA [CACACA_negctrl_site109]”, “ATTTTTTAAAAAAACATACACACAAAAAAAAAAAAA [CACACA_site3936]” is lower in “gcPBM binding intensity (ln)” value: 9.69 for the first, 9.61 for the second.

First: CATAATATCTCTTTGTGTACATATAGTTATTATTAT [XGTACX_site7688]
Second: CTGGAGTTAAAAATGTGTACCTAAAAAATTTTGTTC [XGTACX_site5554]
The “gcPBM binding intensity (ln)” value of the first is higher: 9.86 for the first, 9.56 for the second.

First: ATTATTATATATAAAACACACAATTTTGTTTTCACA [CACACA_site3965]
Second: CTTGTATATAAACACACACACACTTTCTTTTTTTAA [CACACA_site8602]
The “gcPBM binding intensity (ln)” value of the first is lower: 9.68 for the first, 10.7 for the second.

First: AAAAAAAAAAAAAAAAAAAAAAATATATATATATTT [GTGCAC_negctrl_site502]
Second: ATTAATCAATATAGGCGTACAAAAAAAATAAATTAT [XGTACX_site1513]
The “gcPBM binding intensity (ln)” value of the first is lower: 9.41 for the first, 9.74 for the second.

Compared with “CCCCTTAATTTATTTTGTACATATAATTTTTTTTTT [XGTACX_site3270]”, “GTATTTTTAAATGACACACACATATATAAATATGTA [CACACA_site6880]” is lower in “gcPBM binding intensity (ln)” value: 9.9 for the first, 9.86 for the second.

Going from “ACAAAAATAAGCAAATGTACATATGTATAATATATT [XGTACX_site2492]” to “TATAAACATAAATATACACACAAACATATAGGTATT [CACACA_site6690]”, the “gcPBM binding intensity (ln)” value rises from 9.93 to 10.1.

Compared with “ATATTATAATTGAAGGTGCAAAATGTAATATAGATA [GTGCAC_site9661]”, “ATTATTATTTAAAAAAGTACATTGAAGTTCATAATA [XGTACX_site3575]” is lower in “gcPBM binding intensity (ln)” value: 9.81 for the first, 9.45 for the second.

First: ATTCATTTTTTGGGGGGTACACCCTTTTAAACATTT [XGTACX_site4797]
Second: GTATAAAAAAATATATGTACTTATTTACATATATAT [XGTACX_site4744]
The “gcPBM binding intensity (ln)” value of the first is lower: 9.76 for the first, 9.78 for the second.
